# Measured values: PubChem BioAssay AID463173 (ICCB-Longwood Screening Facility, Harvard Medical School, 2010)
# About 4,300 (8.3%) of roughly 52,000 compounds were called active. Rule as the data show it: active = survival mostly below about 52% (no sharp cut-off); inactive = mostly above about 56%. This is one part of the list.
# Tested on: DeltatarO mutant
# Assay: growth inhibition of S. aureus wild type versus tarO mutant, primary screen, teichoic acid synthesis inhibitors, RN4220, OD600 (AID 463173)
# Conditions: OD600, 18 h, hits give low values, screened at 18.75 µg/mL (by protocol)
row,SMILES,survival
1,COc1ccc(CCN=C(N)Nc2nc(C)cc(C)n2)cc1,active: 39%
2,CCCN(c1ccccc1CC)S(=O)(=O)c1ccc2c(c1)CC(C)N2C(=O)C1CC1 (stereo not drawn),inactive: 50%
3,CC(C)CSc1nnc2c3ccccc3n(C)c2n1,inactive: 68%
4,CCCCC(CC)CNC(=O)CCCn1c(=O)[nH]c2ccsc2c1=O (stereo not drawn),inactive: 111%
5,COc1ccc(C)cc1Nc1nc(-c2cccc(Cl)c2)c2c(n1)-c1ccccc1OC2,inactive: 68%
6,COc1cc(-c2nc(Cn3nnc(C(=O)Nc4cc(C)cc(C)c4)c3C)c(C)o2)cc(OC)c1OC,inactive: 42%
7,NNC(=O)c1c(O)c2ccccc2[nH]c1=O,inactive: 52%
8,CCOC(=O)c1cc(-c2ccccc2)n(CC(=O)N(C)c2ccc(OC)cc2)c1C,inactive: 107%
9,CCOc1ccc(NC(=O)C(NC(=O)C2CCC(C)CC2)C(C)C)cc1 (stereo not drawn),inactive: 71%
10,CCCCN(CCCC)CC(O)Cn1cc(/C=C/C(=O)c2ccccc2)c2ccccc21 (stereo not drawn),active: 5%
11,COc1cccc2c1cc1c(=O)n(CC(=O)NC3CC3)nc(C)n12,inactive: 109%
12,O=c1c(=O)n(-c2cccc(Cl)c2)ccn1Cc1cccc(F)c1,inactive: 66%
13,CC(=O)N1CCc2cc(S(=O)(=O)NC(CC(C)C)C(=O)NCc3ccccc3)ccc21 (stereo not drawn),inactive: 75%
14,O=c1c2c(nc3n1CCCS3)-c1ccccc1CC21CCCC1,inactive: 73%
15,COc1cccc(-c2nc(CSCC(=O)NCCc3ccc(Cl)cc3)c(C)o2)c1,active: -4%
16,Cc1nnc(SCC(=O)Nc2ccc(Br)cc2)[nH]c1=O,inactive: 101%
17,Cc1ccc(C(=O)NS(=O)(=O)c2ccccc2)cc1,inactive: 77%
18,COc1ccc(C2C(=O)N(C3CCC(C)CC3)CC(=O)N2CCc2ccccc2)cc1OC (stereo not drawn),inactive: 64%
19,CSc1cccc(NC(=O)CN(c2ccccc2)S(=O)(=O)N(C)C)c1,inactive: 132%
20,CC1CCN(S(=O)(=O)c2ccc3c(c2)N(CC(=O)NC(C)c2ccccc2)C(=O)CO3)CC1 (stereo not drawn),inactive: 107%

row,SMILES,survival
1,Cc1cc(N2CCCCC2)nc2ccc(NC(=O)c3cccc(F)c3)cc12,inactive: 83%
2,Nc1c(-c2nc(-c3ccc(Cl)cc3)cs2)c2ccccn2c1C(=O)c1ccc2c(c1)OCO2,inactive: 101%
3,Cc1c(C)n(Cc2ccc(Cl)cc2)c2ccc(C(=O)NCCc3ccc(S(N)(=O)=O)cc3)cc12,inactive: 117%
4,COCCCNC(=O)c1cc2c(=O)n3cccc(C)c3nc2s1,inactive: 70%
5,O=S(=O)(Nc1cccc(-c2ccc(N3CCCCC3)nn2)c1)c1cccc(F)c1,inactive: 91%
6,CCCCc1nc2ccccc2n2c(-c3ccc(C)cc3)c3c(=O)n(C)c(=O)n(C)c3c12,inactive: 69%
7,O=[N+]([O-])c1cc(-c2nc(-c3cccnc3)no2)ccc1NCc1ccccc1,inactive: 63%
8,CC(C)c1ccc(NC(=O)CN2C(=O)COc3ccc(S(=O)(=O)Nc4ccccc4)cc32)cc1,inactive: 81%
9,O=C(Nc1ccc(Br)cc1)C1CCN(S(=O)(=O)c2cccc3nsnc23)CC1,inactive: 88%
10,CC(C)OCCCNC(=O)CCCn1c(SCC(=O)c2ccc(F)cc2)nc2c(sc3ccccc32)c1=O,inactive: 92%
11,Cc1ccc2oc(=O)c3cnn(CC(=O)Nc4cccc(C(F)(F)F)c4)c3c2c1,inactive: 87%
12,NC(=O)/C(=C\c1ccco1)NC(=O)c1ccco1,inactive: 88%
13,O=C(NCC(c1ccco1)S(=O)(=O)c1ccc(Cl)cc1)c1ccccc1F (stereo not drawn),inactive: 94%
14,COc1ccc(CCNC(=O)c2nnc(Cc3ccc(Cl)cc3)o2)cc1OC,inactive: 74%
15,CCCc1nnc(NC(=O)Cc2coc3cc(C)cc(C)c23)s1,inactive: 81%
16,CCOc1ccc(Nc2nc3ccccc3n3c(CC)nnc23)cc1,active: 36%
17,CCCN1CCN(CCCNC(=O)c2cnn(-c3ccc(F)cc3)c2-n2cccc2)CC1,inactive: 81%
18,O=S(=O)(c1cccc(C(F)(F)F)c1)n1c(/C=C/c2ccccc2)nc2ccccc21,inactive: 71%
19,O=C(Cn1c(=O)n(-c2ccccc2)c(=O)c2sc3ccccc3c21)N1CCCC1,inactive: 92%
20,CSc1nc2sc3c(c2c(=O)n1-c1ccccc1C)CCCC3,inactive: 97%

row,SMILES,survival
1,CCC(=O)N1CCc2cc(Br)cc(S(=O)(=O)NCc3ccc(Cl)cc3)c21,inactive: 46%
2,Cc1cccc(N2C(=O)CSC23C(=O)N(Cc2cccc(C(F)(F)F)c2)c2ccccc23)c1 (stereo not drawn),inactive: 107%
3,COCC(=O)N1c2nc(C(C)C)nn2C2(CCCCC2)[C@@H]2CCCC[C@@H]21,inactive: 74%
4,Cc1c(C(=O)NCc2ccccc2)sc2nc3n(c(=O)c12)CCC3,inactive: 106%
5,COC(=O)c1ccc(S(=O)(=O)N(C)C)o1,inactive: 68%
6,CN(C)C(=O)CSc1ccc(-c2ccc(F)cc2)nn1,inactive: 92%
7,COCCCNC(=O)CSc1c2c(nc3ccc(Cl)cc13)CCCC2,inactive: 68%
8,CCN(c1ccc(OC)cc1)S(=O)(=O)c1nnc(NC(=O)c2ccccc2Cl)s1,active: 46%
9,Cc1ccc(CNC(=O)c2ccc(CSCc3ccc(C)cc3)o2)cc1,inactive: 95%
10,CCOc1ccc(C2c3c(oc4ccc(C)cc4c3=O)C(=O)N2Cc2ccc3c(c2)OCO3)cc1OC (stereo not drawn),inactive: 136%
11,C=Cc1ccc(CSc2nc(-c3ccccc3Cl)nc3c2Cc2c(CO)cnc(C)c2O3)cc1,inactive: 75%
12,Cc1nc(N2CCCC2)c2c(C(=O)N3CCN(c4cccc(Cl)c4)CC3)c(C)oc2n1,inactive: 102%
13,COc1ccc(N2CCN(C(=O)c3ccc(CS(=O)(=O)c4ccc(Br)cc4)o3)CC2)cc1,inactive: 128%
14,O=C(NC1CCCC1)c1cnn2c(C(F)F)cc(-c3ccccc3)nc12,inactive: 78%
15,CCN(c1ccccc1)c1nnc(NC(=O)Nc2cccc(Br)c2)s1,inactive: 80%
16,Cc1cc(C)cc(-n2ccn(CC(=O)Nc3ccccc3C(F)(F)F)c(=O)c2=O)c1,inactive: 63%
17,O=C1CC(c2nc3ccccc3n2CCCOc2ccccc2)CN1c1ccc(F)cc1 (stereo not drawn),inactive: 97%
18,CN(C)CCNC(=O)CCCN1C(=O)c2cccnc2Oc2ccc(Cl)cc21,inactive: 78%
